Data: the supplement of paper PMC12217912
This is one part of the list. The full chains were built here from the parent and the listed change. Values near 0.05 are background.

B1: TEV protease; numbered along this chain (parent)
chain: MGESLFKGPRDYNPISSSICHLTNESDGHTTSLYGIGFGPFIITNKHLFRRNNGTLVVQSLHGVFKVKDTTTLQQHLVDGRDMIIIRMPKDFPPFPQKLKFREPQREERICLVTTNFQTKSMSSMVSDTSCTFPSGDGIFWKHWIQTKDGQCGSPLVSTRDGFIVGIHSASNFTNTNNYFTSVPKNFMELLTNQEAQQWVSGWRLNADSVLWGGHKVFMVKPEEPFQPVKEATQL

Variants of: B1
Experiment: raw area under fraction-flipped curve 0-4 h after induction (AUC4h, not background-subtracted), DNA-recorder readout of cleavage of the substrate (dimensionless); higher = more cleavage of the substrate by the protease variant
Conditions: temperature: 34 °C; time window: 0-4 h after rhamnose induction
Procedure: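 In vivo DNA recorder in E. coli TOP10(DE3) ΔrhaA at 34 °C. Each TEVp single-site mutant (parent TEVp 0) is paired with a single-site variant of the 7-mer TEVs (canonical ENLYFQ|S). The substrate sits between flexible linkers in a Bxb1-sfGFP-TEVs-SsrA fusion, so cleavage stabilises Bxb1 and speeds flipping of a recombination array, read by NGS. The value is the raw area under the fraction-flipped curve over 0-4 h after rhamnose induction (AUC4h), with ≥20 reads per time point. It is not background-subtracted; inactive controls average about 0.047.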
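Note: Bxb1 expression induced with 0.2% (w/v) L-rhamnose at OD600 near 0.5, cultures sampled hourly, flipped fraction per protease–substrate barcode pair counted by paired-end Illumina sequencing.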

| Variant | area with substrate ENLYEQS | area with substrate ENLYGQS | area with substrate ENLYHQS | area with substrate ENLYPQS | area with substrate ENLYWQS | area with substrate ENLYKQS | area with substrate ENLYMQS | area with substrate ENLYNQS | area with substrate ENLYQQS | area with substrate ENLYRQS |
| --- | --- | --- | --- | --- | --- | --- | --- | --- | --- | --- |
| T159P | 0.0492 | 0.0777 | 0.0366 | 0.0774 | 0.112 | – | – | – | – | – |
| K100Q | 0.059 | – | 0.0724 | – | 0.0905 | 0.0735 | 0.081 | 0.0864 | 0.0746 | 0.0633 |
| T119R | 0.0583 | – | 0.0605 | 0.0906 | – | – | – | – | – | – |
| T119G | 0.119 | – | 0.0629 | – | – | – | – | 0.0638 | – | – |
| G202W | 0.0408 | 0.0676 | 0.0561 | 0.0629 | 0.0339 | – | – | 0.0661 | – | – |
| T129H | 0.0687 | – | 0.0874 | – | – | – | – | 0.0811 | – | – |
| P222T | 0.0704 | 0.074 | – | 0.0604 | – | 0.056 | 0.0853 | – | 0.0507 | 0.0585 |
| M83L | 0.162 | – | 0.0743 | – | – | 0.0585 | – | 0.0656 | – | 0.0654 |
| T174F | 0.0591 | 0.059 | 0.0736 | 0.0547 | 0.0734 | – | – | – | 0.0609 | – |
| T174G | 0.0689 | 0.0427 | 0.078 | 0.0749 | – | 0.0797 | 0.0761 | 0.0626 | 0.0566 | – |
| T174C | 0.0666 | – | – | 0.0677 | – | – | – | 0.0508 | – | – |
| K7W | 0.0504 | – | 0.0514 | – | – | – | – | – | – | 0.0617 |
| K7H | 0.06 | – | – | – | – | 0.0539 | 0.09 | – | 0.0597 | – |
| K7S | 0.0583 | – | – | 0.0927 | – | – | 0.113 | – | – | – |
| S201N | 0.0612 | 0.0635 | 0.0484 | 0.0438 | 0.0844 | 0.0656 | 0.0772 | 0.0924 | 0.064 | 0.0543 |
| S201Q | 0.0637 | 0.12 | 0.062 | – | 0.108 | 0.0571 | 0.0714 | – | – | – |
| S201H | 0.115 | 0.0709 | 0.0544 | – | – | – | 0.0717 | – | – | – |
| T31I | 0.0663 | 0.0562 | 0.0481 | – | – | 0.0623 | 0.11 | – | 0.0504 | – |
| F101H | 0.0489 | – | – | 0.035 | – | – | 0.0599 | 0.0384 | – | – |
| G80L | 0.0888 | 0.0704 | 0.0758 | – | 0.0409 | – | – | – | – | 0.0501 |
| K142N | 0.0693 | 0.0315 | 0.0771 | – | – | 0.0633 | 0.0768 | 0.0744 | – | 0.0697 |
| V165M | 0.0634 | – | – | – | – | – | – | 0.0353 | – | – |
| S60G | 0.0516 | – | 0.0613 | – | – | 0.0685 | – | – | 0.0919 | 0.0693 |
| T114N | 0.0649 | – | – | 0.0864 | – | – | 0.058 | 0.0721 | – | – |

| Variant | area with substrate ENLYEQS | area with substrate ENLYGQS | area with substrate ENLYHQS | area with substrate ENLYPQS | area with substrate ENLYWQS | area with substrate ENLYKQS | area with substrate ENLYMQS | area with substrate ENLYNQS | area with substrate ENLYQQS | area with substrate ENLYRQS |
| --- | --- | --- | --- | --- | --- | --- | --- | --- | --- | --- |
| R50N | 0.0656 | 0.0595 | – | – | 0.0872 | – | – | – | – | – |
| Q198P | – | – | – | – | 0.0743 | – | 0.072 | – | – | 0.0586 |
| Q198G | 0.0678 | – | 0.0881 | – | 0.0676 | – | – | 0.0681 | – | 0.0576 |
| Q74P | 0.0675 | – | – | – | – | 0.046 | – | 0.0871 | – | – |
| L77R | 0.0598 | – | 0.0801 | – | 0.0713 | 0.0461 | – | 0.0586 | 0.0517 | 0.0653 |
| V57Q | 0.0677 | – | 0.162 | – | – | – | 0.105 | 0.0643 | – | 0.0493 |
| N206P | 0.0576 | – | – | 0.0804 | – | – | – | 0.0639 | – | 0.047 |
| G138M | 0.0628 | – | 0.0696 | 0.0535 | – | – | – | 0.0498 | – | 0.0737 |
| F163K | 0.0632 | – | – | – | 0.0756 | – | 0.0949 | – | – | – |
| F163P | 0.0601 | – | 0.0688 | – | 0.0318 | – | 0.0583 | – | – | – |
| K185V | 0.0752 | 0.0599 | 0.074 | 0.0587 | 0.0668 | 0.0651 | – | 0.0691 | – | – |
| K185A | 0.071 | 0.0924 | 0.0625 | 0.0651 | 0.0609 | 0.0315 | 0.0746 | 0.0763 | 0.0522 | 0.0623 |
| W199Q | 0.0446 | – | – | 0.056 | – | 0.0757 | – | 0.068 | – | – |
| W199S | 0.0428 | 0.0575 | – | 0.0748 | – | 0.0453 | – | – | – | – |
| Q97N | 0.0702 | – | – | 0.0774 | 0.0735 | 0.0828 | – | – | – | 0.0483 |
| Q97R | 0.111 | – | – | – | – | – | – | – | – | 0.0362 |
| N116F | 0.0422 | – | 0.0569 | – | – | 0.0549 | – | 0.0635 | 0.066 | 0.0381 |
| N116T | 0.0677 | – | – | – | – | – | – | – | 0.0422 | – |
| N116V | 0.0679 | – | 0.0735 | 0.0939 | – | – | – | – | 0.0709 | 0.0683 |
| G2H | 0.0826 | 0.0796 | 0.0881 | – | – | 0.0528 | – | – | 0.0633 | – |
| G2S | 0.0695 | – | – | – | – | 0.0703 | – | – | – | 0.0483 |
| N178Q | 0.0704 | – | – | – | 0.0776 | 0.0517 | – | – | – | – |
| N178M | 0.0713 | 0.0637 | 0.0984 | 0.0846 | – | – | 0.125 | – | 0.0678 | – |

Same assay, conditions: temperature: 34 °C; time window: 0-4 h after rhamnose induction

| Variant | area with substrate ENLYSQS | area with substrate ENLYTQS | area with substrate ENLYVQS | area with substrate ENLYDQS | area with substrate ENLYIQS | area with substrate ENLYYQS | area with substrate ENLYLQS |
| --- | --- | --- | --- | --- | --- | --- | --- |
| K100Q | 0.0668 | 0.0861 | 0.109 | – | – | – | – |
| T119R | – | – | 0.0323 | – | – | – | – |
| G202W | 0.0601 | – | – | 0.0545 | 0.0545 | 0.0599 | – |
| T129H | 0.0914 | – | – | – | – | – | – |
| P222T | 0.0676 | – | 0.129 | 0.0555 | 0.0937 | – | – |
| M83L | – | – | 0.153 | – | 0.133 | 0.0834 | 0.0807 |
| T174F | – | – | – | – | 0.122 | 0.0605 | – |
| T174G | – | – | 0.089 | – | 0.0895 | 0.0573 | – |
| T174C | 0.0505 | – | – | – | – | 0.0626 | – |
| K7W | 0.0538 | – | – | – | – | – | – |
| K7H | 0.0674 | – | – | – | – | – | – |
| K7S | 0.0807 | – | – | – | – | 0.0849 | – |
| S201N | – | – | – | 0.0664 | 0.108 | – | – |
| S201Q | – | – | 0.124 | – | – | – | – |
| S201H | 0.0842 | – | – | 0.0648 | 0.0697 | – | 0.0921 |
| T31I | – | – | 0.13 | – | – | 0.0665 | – |
| F101H | – | 0.0721 | 0.0469 | – | – | – | 0.0402 |
| G80L | – | – | 0.133 | – | 0.0884 | 0.0747 | – |
| K142N | 0.0667 | – | – | – | – | – | – |
| S60G | – | – | – | – | 0.114 | – | 0.067 |

| Variant | area with substrate ENLYSQS | area with substrate ENLYTQS | area with substrate ENLYVQS | area with substrate ENLYDQS | area with substrate ENLYIQS | area with substrate ENLYYQS | area with substrate ENLYLQS |
| --- | --- | --- | --- | --- | --- | --- | --- |
| T114N | – | – | 0.126 | – | – | 0.0797 | 0.102 |
| Q198P | – | – | 0.0966 | 0.0581 | 0.174 | – | – |
| Q198G | 0.0643 | 0.0701 | 0.107 | 0.0608 | 0.0854 | – | – |
| Q74P | 0.078 | – | – | – | – | – | – |
| L77R | 0.0677 | 0.0744 | 0.0776 | – | – | – | – |
| N206P | 0.0843 | 0.0685 | – | 0.0786 | – | – | – |
| F163P | 0.0544 | – | – | – | 0.0562 | 0.0552 | – |
| K185V | 0.0692 | – | 0.117 | – | 0.0923 | 0.0641 | – |
| K185A | 0.0752 | – | 0.114 | – | – | – | 0.0971 |
| W199Q | – | – | – | 0.0793 | 0.0737 | – | – |
| W199S | 0.075 | – | 0.0638 | – | 0.0803 | – | – |
| Q97N | – | – | – | – | 0.101 | – | – |
| Q97R | 0.0531 | – | – | – | – | – | – |
| N116F | – | – | – | – | 0.127 | 0.0516 | – |
| N116T | – | 0.0693 | 0.0616 | – | – | – | – |
| N116V | 0.0709 | – | 0.0486 | – | – | – | – |
| G2H | 0.096 | – | – | – | 0.18 | – | – |
| N178Q | – | – | – | – | 0.101 | – | – |
| N178M | – | 0.136 | – | – | 0.213 | – | – |
